ChEMBL document CHEMBL4888484, “Replenishing the malaria drug discovery pipeline: Screening and hit evaluation of the MMV Hit Generation Library 1 (HGL1) against asexual blood stage Plasmodium falciparum ,using a nano luciferase reporter read-out” (2022)
Screen size: about 150,000 compounds; about 540 (0.36%) showed an effect of 50% or more. The list shows a part of the results.

Tested on: Plasmodium falciparum
Assay: Primary screen in NF54 nanoGlo assay, in single point, at 2uM, 72h; a lower Z score goes with more inhibition
Format: functional, Erythrocyte
Settings: timepoint 72 hour

Compound | % Inhibition | Z score
CC1CN(Cc2ccc(C#N)cc2)CCN1C(=O)c1ccccc1OCC1CCCO1 (stereo not drawn) | 1% | -0.12
Cc1ccc(S(=O)(=O)Cc2ccc(-c3nc(-c4cccc(C(F)(F)F)c4)no3)o2)c(C)c1 | -1% | 0.14
Cc1cccc(CNS(=O)(=O)c2cc3c(s2)CCN(C(=O)C2CCC2)C3)c1 | -7% | 1.29
CC(=O)N(c1nc(C=C(C)c2cnccn2)cs1)C1CC1 | -11% | 1.11
CC(C)(C)c1nccc(NC2CCCC2C(N)=O)n1 (stereo not drawn) | -3% | 0.63
C#CCn1ccnc1CNc1nnc(CCCC)o1 | -7% | 1.15
O=C(CC1CCCC1)NCCn1ccnc1 | -6% | 0.87
O=C(NC1CCCCC1)C(=O)N1CC2CCCC21 (stereo not drawn) | -14% | 2.18
CCc1ncc(C(=O)N2CCO[C@@H](CCCc3ccccc3)C2)cn1 | -2% | 0.24
COCCCN(C)C(=O)N1CCCC[C@H](N2CCN(C)CC2)C1 | -14% | 1.51
O=C(Nc1cccc(S(=O)(=O)N2CCCC2)c1)C1=NN(c2ccccc2)C(=O)CC1 | 1% | -0.13
C=C1C(C)C2C(Cc3c[nH]c4ccccc34)NC(=O)C23C(=O)CC(O)C(O)CC(C)C/C=C/C3C1O (stereo not drawn) | 67% | -7.59
C[C@H](NC(=O)NC[C@H]1CCCC[C@@H]1O)c1cccc(O)c1 | 2% | -0.32
O=C(C1CCN(c2ncnc3c2oc2ccccc23)CC1)N1CCOCC1 | -5% | 0.97
COC(=O)CCNC(=O)C1CCCC1C(=O)NCCC(=O)OC (stereo not drawn) | -1% | 0.11
Cc1cc(-c2nc3ccccc3s2)ccc1NC(=O)NCc1ccc(F)cc1 | -11% | 1.78
O=C(N1CC2CC1CO2)C1(c2ccccc2)CCOCC1 (stereo not drawn) | -12% | 1.44
CN(C)c1ccc(CCC(=O)N2CCCC[C@@H]2CCN2CCCC2=O)cc1 | -4% | 0.36
Cc1cc(N(C)C)nc(CNC(=O)Cc2ccccc2)n1 | -4% | 0.68
CC[C@@]1(F)C(=O)Nc2ccccc2C1=O | -5% | 0.63
COCC[C@H]1CN(CCCn2cc(C)cn2)CCO1 | -3% | 0.58
CC(C)C(=O)N1CCC(NCc2csc(C3CC3)n2)C(C)C1 (stereo not drawn) | -7% | 1.08
COc1ccc2c(c1)N1CCN(c3ccc(C)cc3)CC1C(C(=O)NCCCN1CCOCC1)C2 (stereo not drawn) | -7% | 0.82
CC(C)NC(=O)c1cc(NS(=O)(=O)c2ccc(C3CCCCC3)cc2)ccc1N1CCNCC1 | -14% | 1.67
